Experimental findings from PubChem BioAssay AID1508642 (National Center for Advancing Translational Sciences (NCATS), 2021) are described below.

The structures appear in SMILES notation. The whole screen tested about 43,000 compounds, of which about 200 (0.47%) were called active. About 12% were inconclusive and are not listed. The call rests on the fitted dose curve; in most records, active means well fitted cell-killing curve with a large enough effect; inconclusive means small, poorly fitted or top-dose-only effect, or effect the other way; inactive means flat fitted curve, though single readings scatter. The list shows a part of the results.
On the % scale 0 is the no-effect control and ±100 the full control effect.

A short description of this experiment: Cell viability qHTS assay in S16 Pmp22-F2sN cells. Further: nearly all actives have a fitted effect of over 65% in size. Particulars: S16 Pmp22-F2sN Schwann cells viability, CellTiter-Glo, 24 h; series mostly up to 57.5 µM; activity change, negative = cytotoxicity: at the top concentration. The essentials: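 Used to flag compounds lowering reporter output through toxicity, this quantitative HTS measures ATP-based CellTiter-Glo luminescence in S16 Pmp22-F2sN Schwann cells after 24 h compound exposure at 37C.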
Take `CC1=C(C(N)=O)C(c2ccc(C)cc2)n2nc(SCc3ccccc3)nc2N1` (configuration not stated): the “activity change, negative = cytotoxicity” value was inactive: 4.9%.

With `CCOc1ccc(NC(=O)CC2C(=O)N(c3ccc(OC)cc3)C(=O)N2CCC2=CCCCC2)cc1` (configuration not stated), the “activity change, negative = cytotoxicity” value was inactive: -0.565%.

For `CCN(CC)C(=O)Cn1ncc2c([nH]c3ccccc32)c1=O`, the “activity change, negative = cytotoxicity” value was inactive: 6.04%.

On to `CCOC(=O)c1cnc2ccc(C(=O)OC)cc2c1Nc1ccc(OCc2ccccc2Cl)cc1`, for which the “activity change, negative = cytotoxicity” value is inactive: -25.1%.

In the case of `CCOC(=O)NNC(=O)C1CCC(C)CC1` (configuration not stated), the “activity change, negative = cytotoxicity” value was inactive: -1.34%.

Regarding `CC(C)Oc1ccc(CNC(=O)c2cnc3sc(N4CCCC4)nn3c2=O)cc1`, the “activity change, negative = cytotoxicity” value was inactive: 9.61%.

`O=C(NCC(c1ccc2c(c1)OCO2)N1CCN(c2ccccc2)CC1)C(=O)Nc1ccccc1F` (configuration not stated): the “activity change, negative = cytotoxicity” value was inactive: -17.2%.

With `Cc1oc2c(c1C(=O)NCc1ccccc1F)C1=NCCN1C=N2`, the “activity change, negative = cytotoxicity” value was inactive: 3.64%.

Take `CCOC(=O)c1cc(NC(=O)c2ccc(F)cc2)c(=O)n2c1oc1ccc(Cl)cc12`: the “activity change, negative = cytotoxicity” value is inactive: -0.0722%.

Take `CCCSCCCNC(=O)Cn1c(-c2cccs2)cc2ccccc21`: the “activity change, negative = cytotoxicity” value was inactive: 9.34%.

Turning to `Cc1cc(O)c(CN2CCN(c3ccccc3)CC2)c2oc(=O)cc(C)c12`, the “activity change, negative = cytotoxicity” value is inactive: 1.99%.

On to `O=C(Nc1c2c(nn1-c1ccc(Cl)cc1)CS(=O)(=O)C2)c1ccc(Br)cc1`, for which the “activity change, negative = cytotoxicity” value is inactive: -1.26%.

As to `COC(=O)CN1C(C(=O)c2ccccc2)=C(OC(=O)c2ccccc2)c2ccccc2S1(=O)=O`, the “activity change, negative = cytotoxicity” value was inactive: 14.4%.

Take `Cc1ccc(NC(=O)CCCn2nc(C)c3c(C)n(-c4ccccc4)nc3c2=O)c(Cl)c1`: the “activity change, negative = cytotoxicity” value is inactive: -2.2%.

As to `COc1ccc(S(=O)(=O)N(CC(=O)Nc2ccc(Br)cc2)Cc2ccccc2)cc1`, the “activity change, negative = cytotoxicity” value is inactive: -26.1%.

Turning to `Cc1ccc(NC(=O)C2CCCN(S(=O)(=O)c3cccs3)C2)c(C)c1` (configuration not stated), the “activity change, negative = cytotoxicity” value is inactive: 14%.

Take `CCCCN(CCCC)C(=O)c1c[nH]c2ccc(S(=O)(=O)Nc3cccc(Cl)c3C)cc2c1=O`: the “activity change, negative = cytotoxicity” value was inactive: -14.1%.

Turning to `CCCn1c2ccccc2c2cnn(CC(=O)N3CCCC(C(=O)OCC)C3)c(=O)c21` (configuration not stated), the “activity change, negative = cytotoxicity” value is inactive: 12.8%.

Regarding `Cc1ccc(C(=O)Nc2cnc3ccccn3c2=O)cc1`, the “activity change, negative = cytotoxicity” value is inactive: 4.47%.

Take `Cc1nc(-c2ccc(S(=O)(=O)NCc3ccccc3Cl)cc2)co1`: the “activity change, negative = cytotoxicity” value was inactive: -1.39%.

Turning to `Cc1ccc2c(=O)cc(C(=O)Nc3sc4c(c3C(=O)NCc3cccnc3)CCCC4)oc2c1`, the “activity change, negative = cytotoxicity” value was inactive: -22.8%.

For the compound `CCOC(=O)c1ccc(NC(=O)C2=C(C)C(=O)OC23CCN(C(C)C)CC3)cc1`, the “activity change, negative = cytotoxicity” value is inactive: 23.8%.

In the case of `COc1cccc2cc(C(=O)Nc3ccc(C)cc3)c(=O)oc12`, the “activity change, negative = cytotoxicity” value was inactive: 6.25%.

For the compound `Cc1ccc(CCNC(=O)c2ccc3c(c2)N(Cc2cccc(F)c2)C(=O)c2ccccc2S3)cc1`, the “activity change, negative = cytotoxicity” value was inactive: 6.47%.

On to `CC(C)CCNC(=O)c1ccc2nc(Cc3ccccc3)oc2c1`, for which the “activity change, negative = cytotoxicity” value is inactive: 11.7%.

Regarding `Cc1cc(NS(=O)(=O)c2ccc(NC(=O)COc3cc(C)c(Br)cc3C(C)C)cc2)no1`, the “activity change, negative = cytotoxicity” value is inactive: -3.54%.

Take `CCOc1ccc(N(CC)C(=O)Cn2cnc3sc(C)c(S(=O)(=O)N4CCN(c5ncccn5)CC4)c3c2=O)cc1`: the “activity change, negative = cytotoxicity” value is inactive: 20.9%.

With `COc1ccc(-c2cc(C(F)(F)F)nc(SCC(=O)NC(C)c3ccccc3)n2)cc1` (configuration not stated), the “activity change, negative = cytotoxicity” value is inactive: 27.9%.

`Cc1ccc(CN(C(=O)COc2ccc(F)cc2)C2CCS(=O)(=O)C2)o1` (configuration not stated): the “activity change, negative = cytotoxicity” value was inactive: -3.82%.

As to `CCn1cc(S(=O)(=O)c2ccccc2)c(=O)c2cc(F)c(F)cc21`, the “activity change, negative = cytotoxicity” value was inactive: 1.55%.

Regarding `Cc1cccc(N2CCN(CCCNc3ncnc4onc(-c5ccc(F)cc5)c34)CC2C)c1` (configuration not stated), the “activity change, negative = cytotoxicity” value is inactive: -27.2%.

With `O=C(Nc1ccc(F)c(F)c1)c1cc(S(=O)(=O)NC2CCCC2)ccc1F`, the “activity change, negative = cytotoxicity” value was inactive: -17.3%.

`CCC(C)NC(=O)Cn1ccc2cc(S(=O)(=O)N3CCCCCC3)ccc21` (configuration not stated): the “activity change, negative = cytotoxicity” value is inactive: 4.06%.

Take `O=C(CCNS(=O)(=O)c1ccc2c(c1)CCN2C(=O)C1CC1)Nc1ccc(OC(F)(F)F)cc1`: the “activity change, negative = cytotoxicity” value is inactive: -9.28%.

For `COc1cccc(C(=O)Nc2ccc3nc(SCCOc4ccccc4)sc3c2)c1`, the “activity change, negative = cytotoxicity” value is inactive: 13.1%.

Regarding `COc1cccc(NC(=O)C2CCCN(c3ncnc4onc(C)c34)C2)c1` (configuration not stated), the “activity change, negative = cytotoxicity” value is inactive: -2.1%.

On to `CCCCOc1cccc(C2c3c(-c4cc(C)ccc4O)n[nH]c3C(=O)N2CCOC)c1` (configuration not stated), for which the “activity change, negative = cytotoxicity” value was inactive: -8.83%.

On to `COc1ccc(NC(=O)CNC(=O)Cn2ccc3ccccc3c2=O)cc1OC`, for which the “activity change, negative = cytotoxicity” value is inactive: 0.53%.

As to `O=C(Nc1ccccc1C(=O)N1CCCCC1)c1nsc2ccccc12`, the “activity change, negative = cytotoxicity” value was inactive: -9.39%.

For `Cc1oc(-c2cccc(Cl)c2)nc1Cn1c(SCc2ccc(F)cc2)nc2cccnc21`, the “activity change, negative = cytotoxicity” value was inactive: -25.6%.

With `COc1cc2c(C(=O)N(C)c3cccc(C(F)(F)F)c3)cn(CC(C)C)c(=O)c2cc1OC`, the “activity change, negative = cytotoxicity” value is inactive: -8.85%.

With `Cc1ccc(C(c2sc3nc(-c4ccco4)nn3c2O)N2CCN(c3ccc(F)cc3)CC2)cc1` (configuration not stated), the “activity change, negative = cytotoxicity” value was inactive: 3.56%.

Turning to `CCCCN(C)C(=O)CCC(=O)NNc1nc2ccccc2c2nc(C)nn12`, the “activity change, negative = cytotoxicity” value was inactive: 3.61%.

Take `COc1cc2c(cc1OC)C(COc1cc(C)cc(C)c1)N(C(=O)C(C)(C)C)CC2` (configuration not stated): the “activity change, negative = cytotoxicity” value was inactive: 9.06%.

Regarding `CCC(Nc1ccc(-c2nc(-c3ccccn3)no2)cc1[N+](=O)[O-])c1ccccc1` (configuration not stated), the “activity change, negative = cytotoxicity” value was inactive: 5.92%.

For the compound `Cc1cc2n(n1)CCCN2C(=O)Nc1ccccc1C(F)(F)F`, the “activity change, negative = cytotoxicity” value was inactive: -5.03%.

As to `CCC(C)OC(=O)/C(C#N)=C/c1ccc(-c2ccc(Br)cc2)o1` (configuration not stated), the “activity change, negative = cytotoxicity” value is inactive: 6.87%.
